Molecules are shown by their SMILES. The campaign covered roughly 150,000 compounds. About 540 (0.36%) showed an effect of 50% or more. The list shows a part of the results.

This experiment relates to Plasmodium falciparum. In words: Primary screen in NF54 nanoGlo assay, in single point, at 2uM, 72h; a lower Z score goes with more inhibition. The note with it: timepoint 72 hour. The experiment is classed as functional, Erythrocyte.
Consider `Cc1cncc(C(=O)N2CCN(Cc3ccccn3)[C@@H]3CS(=O)(=O)C[C@@H]32)c1`, for which the “% Inhibition” value was 2% and the Z score was -0.27.
With `O=C(O)c1ccc2c(c1)C(=O)N(c1cnc(-c3ccccc3)s1)C2=O`, the “% Inhibition” value is listed as -4% and the Z score is reported as 0.8.
The like results for `Cc1cc(C(=O)NCc2nc(C)c(C(=O)O)s2)c(C)s1` were, in that order, 0% and 0.02.
The like results for `Cc1ccc(OCC(=O)NCc2ccccc2)c(-n2cnnc2)c1` were, in that order, -14% and 1.84.
The like results for `NS(=O)(=O)N1CCN(C(=O)CC2Cc3ccccc3C2)CC1` were, in that order, -16% and 2.09.
Turning to `CO[C@@H](CNC(=O)CC1CC1)c1ccc(F)cc1`, the “% Inhibition” value was -5% and the Z score came to 0.74.
The like results for `CCCOc1nc(C)ccc1C(=O)NC` were, in that order, -13% and 1.8.
The like results for `O=C(NCCCn1ccnc1)C1CCC1` were, in that order, -12% and 2.2.
The like results for `Cc1cccc(OCC(=O)N2CCN(c3nnc(-c4ccon4)s3)CC2)c1C` were, in that order, -10% and 0.84.
Turning to `CCC[C@H]1CN(CC(=O)NC(C2CC2)C2CC2)CCN1CC(=O)NC(C1CC1)C1CC1`, the “% Inhibition” value is -15% and the Z score was 2.15.
With `CC(C)OC[C@@H](O)CN(Cc1c(-c2ccccc2)nn(C)c1Oc1ccc(Cl)cc1)CC1CC1`, the “% Inhibition” value was -3% and the Z score amounted to 0.27.
The like results for `NCC1(C(=O)Nc2nc(C3CC3)c(Cc3ccccc3F)s2)CCOCC1` were, in that order, 0% and 0.
For `Cc1ccc(Br)c(C(=O)NCCc2nc(C)no2)n1`, the “% Inhibition” value is recorded as -4% and the Z score amounted to 0.75.
The like results for `COc1ccccc1OCCn1c(C)cc(C(F)(F)F)cc1=O` were, in that order, 4% and -0.83.
The like results for `CCN(Cc1noc(CC(C)C)n1)C(=O)CCc1nc2ccccc2[nH]1` were, in that order, 3% and -0.57.
The like results for `N#Cc1ccc(C(=O)N2C[C@@H]3CC[C@H]2CN(Cc2ccccc2)C3)cc1` were, in that order, -14% and 1.83.
Turning to `O=C(O)c1ccc(-c2n[nH]c(=O)c3c2CCCC3)cc1`, the “% Inhibition” value amounted to 31% and the Z score is on record as -4.53.
On to `Oc1ccc([C@@H](c2cn(-c3nc(-c4ccc(Cl)cc4)cs3)nc2-c2ccccc2)c2c(-c3ccccc3)nn(-c3nc(-c4ccc(Cl)cc4)cs3)c2O)cc1`, for which the “% Inhibition” value is listed as 34% and the Z score is recorded as -0.91.
As for `Cc1cccc(-n2nc(C)nc2CNC(=O)N(C)C)c1`, the “% Inhibition” value is on record as -14% and the Z score was 1.5.
The like results for `O=S1(=O)CCc2nnc(-c3cccc(OC(F)F)c3)n2CC1` were, in that order, 13% and -1.63.
The like results for `CCOC(=O)N1CCC(NC(=O)c2ccc(O)nc2)CC1` were, in that order, -3% and 0.48.
The like results for `Cc1nc(N2CCN(C)CC2)cc(N2CCN(C(=O)Cc3ccccc3)CC2)n1` were, in that order, 0% and -0.04.
With `Cc1nc2ccncc2cc1C(=O)N1CCN(C)C(=O)C1`, the “% Inhibition” value is -1% and the Z score is on record as 0.08.
Consider `CN(C)[C@@H](CN=C1CCCCCN1)c1ccccc1`, for which the “% Inhibition” value is listed as -6% and the Z score amounted to 1.17.
The like results for `Nc1ccnc(COc2ccc(OCC(F)(F)F)cc2)n1` were, in that order, 15% and -2.06.
The like results for `Cc1cc(F)c(Br)cc1NC(=O)CCc1nnc[nH]1` were, in that order, 2% and -0.23.
The like results for `O=C1COc2ncc(C(=O)N3CCCC[C@H]3c3noc(C4CC4)n3)cc2N1` were, in that order, 2% and -0.29.
Turning to `Cc1ccc(-n2nc3c(=O)n([C@@H](C)C(=O)NCc4cccc(C)c4)nc(C)c3c2C)cc1`, the “% Inhibition” value is reported as 14% and the Z score was -1.67.
The like results for `CC(C)C(=O)N1CCN(C(=O)c2ccc(F)c(F)c2)[C@H]2CS(=O)(=O)C[C@H]21` were, in that order, -6% and 0.9.
The like results for `O=C1C[C@@H](C(=O)Nc2cccc(Cl)c2)n2ncc(-c3ccc(F)cc3)c2N1` were, in that order, 2% and -0.28.
The like results for `CN1CCO[C@H](CNC(=O)N[C@H]2CCOC2)[C@H]1c1cnn(C)c1` were, in that order, -4% and 0.84.
As for `CCc1onc(C)c1[C@@H]1CCCN1C(=O)Nc1cccc(OC)c1`, the “% Inhibition” value is reported as -1% and the Z score is 0.13.
In the case of `Cc1nc(N2CCN(C)CC2)cc(N2CCN(C(=O)c3c(F)cccc3F)CC2)n1`, the “% Inhibition” value is given as -29% and the Z score is given as 2.59.
The like results for `CCN(CC(=O)Nc1c(F)cccc1F)C(=O)Cc1csc(-c2ccccc2)n1` were, in that order, -16% and 3.23.
For the compound `CCc1nn(C)c(=O)c2cc(S(=O)(=O)NCc3ccc(F)cc3Cl)cn12`, the “% Inhibition” value is given as 2% and the Z score is given as -0.23.
In the case of `CN(Cc1c[nH]cn1)S(=O)(=O)CCc1cccc(Cl)c1`, the “% Inhibition” value stood at 5% and the Z score is on record as -0.64.
The like results for `COc1ccc2c(c1)OC(C)(C)CN(C(=O)Nc1ccncc1C)C2` were, in that order, 1% and -0.15.
The like results for `Cc1n[nH]c(C)c1-c1nc(C(F)(F)F)nn1C` were, in that order, -6% and 0.62.
With `Cc1nc([C@@H]2CCCN2c2c(C#N)c(=O)n(C)c(=O)n2C)no1`, the “% Inhibition” value is on record as -29% and the Z score was 3.42.
The like results for `CC(C)COC(=O)Nc1cccc(NC2CCOCC2)c1` were, in that order, -8% and 0.79.
The like results for `Cc1ccccc1-n1nc(C(=O)N2CCN(c3ccc(F)cc3)CC2)nc1-c1ccccc1` were, in that order, -2% and 0.29.
The like results for `Cc1cccnc1NS(=O)(=O)c1ccc2c(c1)CCN2` were, in that order, -31% and 3.65.
As for `COCc1noc(Cn2ccnc2C(C)C)n1`, the “% Inhibition” value was -8% and the Z score stood at 1.56.
The like results for `Cc1cc(Br)cc(S(=O)(=O)N(C)C(C)(C)C#N)c1` were, in that order, -12% and 1.4.
The like results for `CCc1nnsc1C(=O)NC1CC(C)N(C2CC2)C1` (stereo not drawn) were, in that order, -5% and 0.41.
The like results for `CCc1cc(-c2n[nH]c(N)c2-c2nc(C)cs2)c(O)cc1OCc1ccccc1Cl` were, in that order, 7% and -1.06.
Consider `CCOC(=O)c1oc(NC(=O)c2ccnc(C)c2)nc1C(F)(F)F`, for which the “% Inhibition” value is reported as -9% and the Z score is reported as 1.22.
The like results for `OCC[C@H]1CN(c2ncnc3[nH]ccc23)CCN1CCc1ccccc1` were, in that order, -9% and 1.17.
The like results for `Cc1c(Cl)cccc1-n1ncnc1CCN1CCCC1=O` were, in that order, -11% and 0.99.
The like results for `COc1ncccc1CNC(=O)N1CCN(c2nccs2)CC1` were, in that order, 3% and -0.63.
Regarding `CCn1cc(CN2CCC([C@]3(C)NC(=O)N(C4Cc5ccccc5C4)C3=O)CC2)c(C)n1`, the “% Inhibition” value is recorded as -11% and the Z score came to 1.44.
The like results for `O=C(N[C@@H]1CCCC[C@H]1OC(F)F)c1cnc2n1CCOC2` were, in that order, -8% and 1.37.
Consider `Cc1ccc(CC(=O)N2CC[C@H](CN3CCOC3=O)C2)cc1O`, for which the “% Inhibition” value came to 0% and the Z score worked out at 0.04.
The like results for `O=C(COc1ccc(-n2cccn2)cc1)NCC1CCC1` were, in that order, -14% and 1.26.
The like results for `CCc1noc(NC(=O)[C@H](C)n2cc(C)cn2)c1C` were, in that order, 0% and 0.07.
Turning to `CC(C)n1c(-c2nccn2CC2(N(C)C)CCOCC2)nc2ccccc21`, the “% Inhibition” value is recorded as -18% and the Z score came to 1.81.
With `CC(=O)c1ccc(N2CCN(C(=O)c3ccc(-n4cccn4)nn3)CC2)cc1`, the “% Inhibition” value is -11% and the Z score is on record as 2.14.
The like results for `COCCC1(c2noc([C@@H](C)c3cnn(C)c3)n2)CCCC1` were, in that order, -11% and 1.52.
The like results for `COc1ccc(-n2nc(C)c3sc(N4CCCN(C(=O)c5ccc(F)cc5Cl)CC4)nc32)cc1` were, in that order, -16% and 1.79.
The like results for `Cc1ccc(NC(=O)CN2C(=O)C(C)(C)c3cc(C)ccc32)c(Br)c1` were, in that order, -9% and 1.59.
Regarding `Cc1nc(C(C)(C)NCCOc2ccccc2C(=O)O)sc1C`, the “% Inhibition” value is given as 8% and the Z score was -0.95.
The like results for `CC(C)c1nnc2n1CCN(Cc1cn(C)nn1)[C@H]2C` were, in that order, -1% and 0.08.
The like results for `NCC(=O)N1CCC[C@H](Oc2ccc(Cl)c(Cl)c2)C1` were, in that order, -17% and 2.4.
The like results for `O=C1CCCN1CCCN1C(=O)[C@H]2CN(Cc3ccc(F)cc3F)C[C@H]2C1=O` were, in that order, -7% and 0.9.
As for `CCN1C[C@@H](CN(C)C(=O)c2ccc(-c3ccc4c(c3)OCO4)cc2)CC1=O`, the “% Inhibition” value was determined as 8% and the Z score was -1.04.
The like results for `CC1(C)C[C@@H](c2noc(-c3ccc(F)cc3)n2)CCO1` were, in that order, -7% and 1.33.
The like results for `CC(=O)OCc1c(C)n(C)c(=O)n(C)c1=O` were, in that order, 37% and -4.76.
The like results for `Cc1cc(C(=O)N[C@@H](C)CO)c(C)n1-c1nccs1` were, in that order, 37% and -4.83.
For `N#Cc1ccc(NCCCc2cc[nH]n2)nc1`, the “% Inhibition” value is recorded as -3% and the Z score is on record as 0.56.
The like results for `Cc1cccn2cc(CN(C)C[C@H](C)c3nccs3)nc12` were, in that order, -8% and 1.47.
Turning to `COC[C@H](C)NCc1cc2cc3c(cc2nc1-c1ccc(F)cc1)OCO3`, the “% Inhibition” value is -8% and the Z score was determined as 1.64.
For `Cn1nc(C(F)(F)F)cc1B1OC(C)(C)C(C)(C)O1`, the “% Inhibition” value worked out at 41% and the Z score was -4.6.
The like results for `CCc1ccc(C2CC(C)CCN2C(=O)c2ccc3[nH]c(=O)[nH]c3n2)o1` (stereo not drawn) were, in that order, -1% and 0.27.
The like results for `CCc1nsc(N[C@H]2CCCc3nn(C)cc32)n1` were, in that order, 5% and -0.96.
Consider `CN(C)[C@H]1CN(C(=O)Nc2cc(C(C)(C)C)ccc2C(C)(C)C)C[C@@H]1O`, for which the “% Inhibition” value was -19% and the Z score came out at 3.46.
The like results for `CCCN(CC(=O)N(Cc1ccccc1)Cc1ccc(C)o1)C(=O)Cc1ccc(F)cc1` were, in that order, -9% and 1.17.
Take `CC1CCCN(S(=O)(=O)N2CCOC3CCCCC32)C1` (stereo not drawn): the “% Inhibition” value is given as -5% and the Z score is listed as 0.77.
For `Cc1cc(C(=O)NC2(c3ncccn3)CCOCC2)c(C)s1`, the “% Inhibition” value is listed as -4% and the Z score stood at 0.7.
The like results for `Cc1nc(CN(c2cccc(CO)c2)C2Cc3ccccc3C2)no1` were, in that order, -8% and 0.64.
The like results for `COC(=O)CC1(NC(=O)Cc2c[nH]c3ccccc23)CCCC1` were, in that order, -3% and 0.36.
On to `Cc1cccc(C(=O)N2CC(=O)Nc3cnccc32)c1Cl`, for which the “% Inhibition” value is -14% and the Z score worked out at 1.32.
The like results for `CCNC(=O)N(CCOC)Cc1ccc(N(CC)CC)cc1OS(=O)(=O)c1ccc(OC)cc1` were, in that order, 0% and -0.03.
For `NCC(=O)Nc1ccc(-c2ncc3n2CCCC3)cc1`, the “% Inhibition” value is on record as -9% and the Z score amounted to 1.22.
The like results for `Cc1ccc(-n2nc3c(N4CCC(C(=O)NCCCN5CCCCC5)CC4)nnc(C)c3c2C)cc1` were, in that order, 20% and -2.35.

As usually defined, the % Inhibition is the change of the read-out against control, counted positive when it falls.

The values above are taken from ChEMBL document CHEMBL4888484, “Replenishing the malaria drug discovery pipeline: Screening and hit evaluation of the MMV Hit Generation Library 1 (HGL1) against asexual blood stage Plasmodium falciparum ,using a nano luciferase reporter read-out” (2022).
